Experimental data from the antibiotic and cytotoxicity screens of Wong et al. (2023).
The other results are listed elsewhere or left out.

Assays:
HSkMC = human skeletal muscle cells; assay: cytotoxicity call (relative viability < 0.9); conditions: 10 µM
HepG2 = assay: cytotoxicity call (relative viability < 0.9); conditions: 10 µM
S. aureus RN4220 = assay: growth inhibition call (relative growth <= 0.2); conditions: 50 µM

Row | Structure (SMILES) | cytotoxicity call (HSkMC) | cytotoxicity call (HepG2) | growth inhibition call (S. aureus RN4220)
1 | C[C@H](CO)N1C[C@H](C)[C@@H](CN(C)C(=O)Nc2ccc(C(F)(F)F)cc2)OCCCC[C@H](C)Oc2ccc(N(C)C)cc2C1=O | inactive | inactive | inactive
2 | Cc1ccc(S(=O)(=O)N(C)C[C@@H]2OCCCC[C@@H](C)Oc3ccc(NC(=O)NC4CCCCC4)cc3C(=O)N([C@@H](C)CO)C[C@@H]2C)cc1 | inactive | inactive | inactive
3 | CC1(C)N=C(N)N=C(N)N1c1ccccc1 | inactive | inactive | inactive
4 | C[C@H]1CCCCO[C@H](CN(C)C(=O)c2ccccc2)[C@@H](C)CN([C@@H](C)CO)C(=O)c2cc(NC(=O)Nc3ccc4c(c3)OCO4)ccc2O1 | inactive | inactive | inactive
5 | C[C@@H]1CN([C@@H](C)CO)C(=O)c2cc(NC(=O)NC3CCCCC3)ccc2O[C@@H](C)CCCCO[C@H]1CN(C)C(=O)NC1CCCCC1 | inactive | inactive | inactive
6 | O=C(C[C@@H]1C[C@H]2c3cc(NC(=O)Nc4ccc(C(F)(F)F)cc4)ccc3O[C@H]2[C@@H](CO)O1)NC1CCCCC1 | inactive | inactive | inactive
7 | Cc1noc(C)c1NC(=O)N(C)C[C@@H]1Oc2ccc(NS(=O)(=O)c3ccccc3)cc2C(=O)N([C@@H](C)CO)C[C@H]1C | inactive | inactive | inactive
8 | C[C@@H]1CCCCO[C@@H](CN(C)Cc2ccccc2)[C@@H](C)CN([C@@H](C)CO)C(=O)c2cc(NC(=O)Nc3ccc(C(F)(F)F)cc3)ccc2O1 | active | active | inactive
9 | COCC(=O)N(C)C[C@@H]1Oc2cc(-c3ccc(OC)cc3)ccc2S(=O)(=O)N([C@H](C)CO)C[C@@H]1C | inactive | inactive | inactive
10 | C[C@H]1CN([C@@H](C)CO)C(=O)c2cc(-c3ccncc3)cnc2O[C@@H]1CN(C)Cc1ccc(Oc2ccccc2)cc1 | inactive | inactive | inactive
11 | COCC(=O)N1C[C@@H](C)[C@@H](OC)CN(C)C(=O)c2ccc(NC(=O)Nc3ccccc3)cc2OC[C@@H]1C | inactive | inactive | inactive
12 | CC(C)NC(=O)N(C)C[C@H]1Oc2c(NC(=O)C3CCCCC3)cccc2C(=O)N([C@H](C)CO)C[C@@H]1C | inactive | inactive | inactive
13 | COc1ccc(CN(C)C[C@@H]2Oc3ccc(NC(=O)Nc4ccc(C(F)(F)F)cc4)cc3C(=O)N([C@H](C)CO)C[C@@H]2C)cc1 | active | active | active
14 | CN(C)CC(=O)N1[C@@H]2c3ccc(C4=CCCC4)c(=O)n3C[C@H]1[C@H](CO)[C@H]2C(=O)NCC1CC1 | inactive | inactive | inactive
15 | O=C(C[C@@H]1C=C[C@@H](NC(=O)CN2CCOCC2)[C@@H](CO)O1)NCCc1ccccc1 | inactive | inactive | inactive
16 | CNC(=O)CN1C(=O)c2ccccc2S1(=O)=O | inactive | inactive | inactive
17 | O=C(C[C@@H]1C=C[C@H](NC(=O)Cc2ccccn2)[C@H](CO)O1)NCCCN1CCOCC1 | inactive | inactive | inactive
18 | C=CCN(C(=O)[C@H]1N(c2ccc(CCO)cc2)C(=O)[C@H]2[C@H](C(=O)O)[C@@H]3C=C[C@@]21O3)c1ccc(OC)cc1 | inactive | inactive | inactive
19 | C[C@H]1CN([C@@H](C)CO)C(=O)c2cc(NC(=O)Nc3ccc(F)cc3)ccc2O[C@H]1CN(C)S(C)(=O)=O | inactive | inactive | inactive
20 | CC(=O)O[C@@H]1CC[C@]2(C)[C@H]3CC[C@]4(C)C(=CC(=O)O[C@H]4c4ccoc4)[C@]3(C)[C@H](OC(C)=O)C[C@H]2C1(C)C | inactive | inactive | inactive
21 | Cn1c(=O)[nH]c(=O)c2c1nc(N1CCN(CC(N)=O)CC1)n2C/C=C/c1ccccc1 | inactive | inactive | inactive
22 | COc1ccc(CN(C)C[C@@H]2OCCCC[C@H](C)Oc3ccc(NC(=O)Nc4ccc(C(F)(F)F)cc4)cc3C(=O)N([C@@H](C)CO)C[C@@H]2C)cc1 | active | active | inactive
23 | C/C=C/c1ccc2c(c1)O[C@H](CN(C)S(=O)(=O)c1ccc(F)cc1)[C@H](C)CN([C@@H](C)CO)S2(=O)=O | inactive | inactive | inactive
24 | CC(C)(C)c1ccc(C(=O)Nc2cccc(C(F)(F)F)c2)cc1 | inactive | inactive | inactive
25 | CC(=O)N1Cc2cc(C(=O)NCc3cc(F)cc(F)c3)nc(-c3cccc(C4=CCCC4)c3)c2[C@H]1CCO | inactive | inactive | inactive
